Experimental data as given in PubChem BioAssay AID360 (National Center for Advancing Translational Sciences (NCATS), 2006).
Out of some 48,000 compounds screened, about 550 (1.1%) were called active. Roughly 4% stayed inconclusive and do not appear here. No stated cut-off is given here; in the data, active means potency below about 15 µM; inconclusive means mostly about 16 µM to 33 µM; inactive means weaker than that. Some of the results follow.

target: Lysosomal acid glucosylceramidase (Homo sapiens) (UniProt P04062); assay: Glucocerebrosidase; conditions: purified enzyme, resorufin glucoside fluorescence (screen aimed at inhibitors), 20 min;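 further: the screen sought inhibitors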
Sequence of UniProt P04062 (P04062 whole entry, looked up): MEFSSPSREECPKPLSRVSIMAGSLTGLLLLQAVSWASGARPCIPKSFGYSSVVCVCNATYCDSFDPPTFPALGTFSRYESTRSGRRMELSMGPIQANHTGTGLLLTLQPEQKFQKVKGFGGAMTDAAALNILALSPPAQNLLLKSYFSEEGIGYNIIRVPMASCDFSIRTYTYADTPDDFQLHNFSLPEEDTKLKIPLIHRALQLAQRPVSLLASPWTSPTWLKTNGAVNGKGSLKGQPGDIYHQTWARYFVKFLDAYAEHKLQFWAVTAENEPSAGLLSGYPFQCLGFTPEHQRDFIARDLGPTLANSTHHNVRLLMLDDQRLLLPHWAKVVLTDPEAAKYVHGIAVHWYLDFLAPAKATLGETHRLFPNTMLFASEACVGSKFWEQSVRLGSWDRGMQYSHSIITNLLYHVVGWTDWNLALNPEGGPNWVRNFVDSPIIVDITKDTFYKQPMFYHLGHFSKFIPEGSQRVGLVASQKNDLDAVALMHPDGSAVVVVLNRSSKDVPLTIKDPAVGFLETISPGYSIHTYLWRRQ
How it was run: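 Compounds titrated against 0.2 nM normal enzyme, 30 uM resorufin beta-D-glucopyranoside substrate, citrate/phosphate buffer with taurocholate and tween-20, pH 5.9. Reaction ran 20 min at room temperature; fluorescence (Ex 548/Em 600) gave AC50.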
Potency means the concentration at half of the fitted maximal effect.

Row | SMILES | Potency
1 | COc1ccc(-n2c(COc3cccc(C)c3)nnc2SCC(=O)NCc2ccco2)cc1 | inactive: > 76.9 µM
2 | CC1=Nc2ccccc2NC(=O)C1Sc1nnc(C)s1 (stereo unspecified) | inactive: > 76.9 µM
3 | c1ccn2c(SCc3ccc4c(c3)OCO4)nnc2c1 | inactive: > 76.9 µM
4 | COc1ccccc1NC(=O)CC1C(=O)Nc2c1c(=O)n(C)c(=O)n2C (stereo unspecified) | inactive: > 76.9 µM
5 | CCOC(=O)c1cc(-c2ccco2)nc2c1c(C)nn2CCC#N | inactive: > 76.9 µM
6 | CC(C)CN1C(=O)NC(NC(=O)c2cccs2)(C(F)(F)F)C1=O (stereo unspecified) | inactive: > 76.9 µM
7 | O=C(c1ccco1)N1CCN(C(=O)C2CCCc3c2[nH]c2ccc(Cl)cc32)CC1 (stereo unspecified) | inactive: > 76.9 µM
8 | CCOC(=O)c1cc2sccc2n1CC(=O)OC(C)C | inactive: > 76.9 µM
9 | Cc1cnc(-c2nnc(N(C)C(=O)c3ccncc3)s2)cn1 | inactive: > 76.9 µM
10 | CCOC(=O)Cn1nc(-c2ccc(Cl)cc2)cc1N | inactive: > 76.9 µM
11 | CCOC(=O)/C(C(C)=O)=C1\OC(=O)c2ccccc21 | inactive: > 76.9 µM
12 | CC(C)(C)c1cc(CNC2CS(=O)(=O)C[C@@H]2O)cc(C(C)(C)C)c1O (stereo partly specified) | inactive
13 | O=C(C1CCN(c2nnnn2-c2ccccc2)CC1)N1CCN(c2ccccc2)CC1 | inactive: > 76.9 µM
14 | CN(C)S(=O)(=O)Nc1ccccc1C(N)=O | inactive: > 76.9 µM
15 | CCOc1ccc2[nH]c(=O)c(C(c3nnnn3CCOC)N3CCOCC3)cc2c1 (stereo unspecified) | inactive: > 76.9 µM
16 | COc1ccccc1N1CCN(S(=O)(=O)c2c(C)ccc3nsnc23)CC1 | inactive: > 76.9 µM
17 | CN1CCC(N(C)CC(=O)Nc2cccc(Oc3ccccc3)c2)CC1 | inactive: > 76.9 µM
18 | COc1ccc(C2C(C(=O)N3CCOCC3)CCC(=O)N2c2cc(OC)c(OC)c(OC)c2)cc1 (stereo unspecified) | inactive: > 76.9 µM
19 | CN(C)S(=O)(=O)N(CC(=O)Nc1ccccc1C(F)(F)F)c1ccccc1 | inactive: > 76.9 µM
20 | CNc1oc(-c2ccc(OCc3ccccc3)cc2)nc1C#N | inactive: > 76.9 µM
21 | O=C(CSc1nc2ccccc2o1)c1cc2ccccc2oc1=O | inactive: > 76.9 µM
22 | CCN(CC)CCN1C(=O)c2oc3ccccc3c(=O)c2C1c1ccc(F)cc1 (stereo unspecified) | inactive: > 76.9 µM
23 | CCOC(=O)c1[nH]c2ccccc2c1NC(=O)C1CCCCC1 | inactive: > 76.9 µM

Row | SMILES | Potency
24 | CN(c1ccccc1C(=O)NCc1ccccn1)S(C)(=O)=O | inactive: > 76.9 µM
25 | CCOc1ccccc1NC(=O)CSc1nnc2c(CC)c(C)nc(N)n12 | inactive: > 76.9 µM
26 | O=C(COC(=O)C1COc2ccccc2O1)Nc1ccc2c(c1)CCC2 (stereo unspecified) | inactive: > 76.9 µM
27 | O=S1(=O)C=C(Sc2nc3cc(Cl)ccc3o2)c2ccccc21 | inactive
28 | COCC(=O)Nc1cc(OC)c(Cl)cc1OC | inactive: > 76.9 µM
29 | Cc1nc(N2CCN(c3ncccn3)CC2)c2oc3ccccc3c2n1 | inactive
30 | CC(=O)Nc1c(OC(C)=O)ccc2c(C)cc(=O)oc12 | inactive: > 76.9 µM
31 | O=C(Nn1cnnc1)c1cc2c(s1)CCCCC2 | inactive: > 76.9 µM
32 | C=CCSc1ncccc1C(=O)NCc1ccccc1 | inactive: > 76.9 µM
33 | COc1ccc(Cl)cc1C(=O)NCC(c1ccco1)N1CCCC1 (stereo unspecified) | inactive: > 76.9 µM
34 | CCCCC(=O)Nc1ccc2oc(-c3ccncc3)nc2c1 | inactive: > 76.9 µM
35 | CCCCn1c(SCC(=O)NC(C)(C)C)nnc1-c1ccco1 | inactive: > 76.9 µM
36 | Cc1nc(Nc2ccc3c(c2)OCCO3)c2nnn(Cc3ccccc3Cl)c2n1 | inactive: > 76.9 µM
37 | Cc1nn(-c2ccc(Cl)cc2)c(N)c1C(O)(CSc1nccn1C)C(F)(F)F (stereo unspecified) | inactive: > 76.9 µM
38 | CCN(CC)c1ccc(NC(=O)c2[nH]c(C)c(C(C)=O)c2C)c(C)c1 | inactive: > 76.9 µM
39 | O=c1cc(CN2CCN(c3ccccc3)CC2)c2c(ccc3ccccc32)o1 | inactive: > 76.9 µM
40 | O=C(Nn1nnnc1Nc1ccccc1)C12CC3CC(CC(C3)C1)C2 | inactive
41 | O=C(O)c1cccc(NC(=O)c2cccc(NC(=O)C3CCCO3)c2)c1 (stereo unspecified) | inactive: > 76.9 µM
42 | CC(=O)c1c(C)nc(C)nc1NC(=O)C(C)C | inactive: > 76.9 µM
43 | O=C(CSc1nnnn1-c1ccc2c(c1)CCC2)Nc1ccc2c(c1)OCCO2 | inactive: > 76.9 µM
44 | COC(=O)c1ccc2c(=O)n(CCN3CCOCC3)c(SCC(=O)c3ccccc3)nc2c1 | inactive: > 76.9 µM
45 | CCC(c1nnnn1Cc1ccc(F)cc1)N(CCCO)Cc1cc2cc3c(cc2[nH]c1=O)OCO3 (stereo unspecified) | inactive: > 76.9 µM
46 | CC(C(=O)NCC1CCCO1)n1cccc1C(=O)c1ccccc1 (stereo unspecified) | inactive: > 76.9 µM

Row | SMILES | Potency
47 | Cc1ccccc1NC(=O)c1cc(N)ccc1N1CCCCC1 | inactive: > 76.9 µM
48 | COc1ccccc1N1CCN(C(=O)CSc2nc(C)c(Cc3ccccc3)c(=O)[nH]2)CC1 | inactive: > 76.9 µM
49 | COc1cccc(C2C(C#N)=C(N)OC3=C2C(=O)CC(c2ccco2)C3)c1OCc1ccc(F)cc1 (stereo unspecified) | inactive: > 76.9 µM
50 | CCCNS(=O)(=O)c1ccc(CCC(=O)NCC2CCCO2)cc1 (stereo unspecified) | inactive: > 76.9 µM
51 | Cn1c(SCC(=O)Nc2ccccc2-c2ccccc2)nnc1-c1ccco1 | inactive: > 76.9 µM
52 | CC(=O)Cc1nsc(NC(=O)c2ccc(Br)o2)n1 | inactive: > 76.9 µM
53 | CC1Cc2ccccc2N1C(=O)CSc1nnnn1Cc1ccccc1 (stereo unspecified) | inactive: > 76.9 µM
54 | CC(=O)Nc1ccc(S(=O)(=O)Nc2ccc(S(=O)(=O)N3CCCCCC3)cc2)cc1 | inactive: > 76.9 µM
55 | O=C(CNS(=O)(=O)c1ccc(Br)s1)NCc1ccc2c(c1)OCO2 | inactive: > 76.9 µM
56 | COc1ccc(C(O)CNc2ccc(C)cc2)cc1 (stereo unspecified) | inactive: > 76.9 µM
57 | CCOc1ccc(NC(=O)CCNc2c(N3CCCC3)c(=O)c2=O)cc1 | inactive: > 76.9 µM
58 | Cc1c2c(n3c(nc4ccccc43)c1C#N)N(Cc1ccccn1)CC2 | inactive: > 76.9 µM
59 | Cc1nc(NCC2CCCO2)nc2c1C(=O)CC(C)C2 (stereo unspecified) | inactive: > 76.9 µM
60 | CCOC(=O)N1CCC(NC(=O)C2CCN(S(=O)(=O)c3cnc[nH]3)CC2)CC1 | inactive: > 76.9 µM
61 | CCc1nc(Sc2nc(C)cc(C)n2)c2oc3ccccc3c2n1 | inactive: > 76.9 µM
62 | O=C(O)c1cc2c(ccc3ccccc32)[nH]1 | inactive: > 76.9 µM
63 | O=C(Nc1ccc2c(c1)OCCO2)c1ccc(Cl)c(S(=O)(=O)N2CCOCC2)c1 | inactive: > 76.9 µM
64 | N#C/C(=C(\O)c1ccco1)c1ccccn1 | inactive: > 76.9 µM
65 | CCOC(=O)N1CCN(S(=O)(=O)c2cc(Br)cc3c2N(C(C)=O)C(C)C3)CC1 (stereo unspecified) | inactive: > 76.9 µM
66 | COCc1nnc(NC(=O)CS(=O)(=O)Cc2ccccc2)s1 | inactive: > 76.9 µM
67 | COc1cccc(NC(=O)CCCn2c(=O)[nH]c3ccccc3c2=O)c1 | inactive: > 76.9 µM
68 | COc1ccc(N(C)S(=O)(=O)c2cccc(C(=O)NC3=NCCS3)c2)cc1 | inactive: > 76.9 µM
69 | Cc1ccc(S(=O)(=O)N2CC3(C)CN(S(=O)(=O)c4ccc(C)cc4)CC(C)(C2)C3O)cc1 (stereo unspecified) | inactive: > 76.9 µM

Row | SMILES | Potency
70 | O=C1c2ccccc2S(=O)(=O)N1CCOc1ccccc1 | inactive: > 76.9 µM
71 | COc1ccc(CNC(=O)c2cc(-c3ccccc3OC)on2)cc1 | active: 11 µM
72 | Cn1nnc2cc(C(=O)NCCC3=CCCCC3)ccc21 | inactive
73 | O=C(c1ccc2c(c1)OCO2)N(c1ccc(F)cc1)C1C=CS(=O)(=O)C1 (stereo unspecified) | inactive: > 76.9 µM
74 | C/C=C/c1ccc(OCCSc2nc(C)cc(=O)[nH]2)c(OC)c1 | inactive: > 76.9 µM
75 | Cc1oc(-c2ccccc2F)nc1CN1CCC(C(=O)NCc2ccco2)CC1 | inactive
76 | Fc1ccccc1CSc1nnnn1-c1ccc2c(c1)OCO2 | inactive: > 76.9 µM
77 | CCc1ccccc1NC(=O)c1nnn(CC(=O)Nc2cccc(C)c2C)c1N | inactive: > 76.9 µM
78 | COc1ccc(-c2cc(-n3c(C(F)(F)F)nc4ccccc43)n(CCC#N)n2)cc1 | inactive: > 76.9 µM
79 | COCCN(C(=O)Nc1ccc(OC)cc1OC)C1CCN(C(C)C)CC1 | inactive
80 | O=C(CSc1nnc2ccccn12)NCCN1C(=O)CSC1=O | inactive: > 76.9 µM
81 | CCOC(=O)Cn1c(N2CCCCCC2)nc2c1c(=O)[nH]c(=O)n2C | inactive: > 76.9 µM
82 | C/C=C/c1ccc(Oc2nnnn2-c2ccc(C(N)=O)cc2)c(OC)c1 | inactive: > 76.9 µM
83 | Cn1c(C(=O)N2CCN(c3ccc(Cl)cc3)CC2)cc2c(=O)[nH]c3ccccc3c21 | inactive: > 76.9 µM
84 | Cc1ccc(N(CC(=O)NCc2cccs2)S(=O)(=O)c2cccs2)cc1 | inactive: > 76.9 µM
85 | CCCc1cc(C(N)=O)c(NC(C)=O)s1 | inactive: > 76.9 µM
86 | CCc1sc(C(=O)N2CCN(S(C)(=O)=O)CC2)cc1Br | inactive: > 76.9 µM
87 | Cn1c(NCc2ccccc2O)nc2ccccc21 | inactive: > 76.9 µM
88 | O=C(NCc1ccco1)c1cc(-c2ccccc2)c(N2CCOCC2)s1 | inactive: > 76.9 µM
89 | CCN1C(=O)c2cccc3c(NS(=O)(=O)c4ccc(NC(C)=O)cc4)ccc1c23 | inactive: > 76.9 µM
90 | Cc1ccc(C(O)CN2C3=NCCN3c3ccccc32)cc1 (stereo unspecified) | inactive: > 76.9 µM
91 | CC(NC(=O)c1ccccc1Cl)C1COc2ccccc2O1 (stereo unspecified) | inactive: > 76.9 µM
